This test concerns Staphylococcus aureus. In words: microbe, parasite or virus in culture. The settings on record: VRSA, read-out: Staphylococcus aureus MIC, VRSA NR-49120.

≈ marks a conversion by molar mass, not a printed value.

On to `Cc1ccccc1Sc1c[nH]c2ccc(Br)cc12` [Compound 174AY, 5-bromo-3-(o-tolylthio)-1H-indole], for which the MIC was 2 µg/mL (≈ 6.28 µM).

`FC(F)(F)c1ccc2[nH]cc(Sc3ccccc3Br)c2c1` [Compound 174AX, 3-((2-bromophenyl)thio)-5-(trifluoromethyl)-1H-indole]: the MIC stood at 1 µg/mL (≈ 2.69 µM).

`OCc1ccccc1Sc1c[nH]c2ccc(Br)cc12` [Compound 174AT, (2-((5-bromo-1H-indol-3-yl)thio)phenyl)methanol]: the MIC amounted to 16 µg/mL (≈ 47.9 µM).

Consider `FC(F)(F)c1ccccc1Sc1c[nH]c2ccc(Br)cc12` [Compound 174AV, 5-bromo-3-((2-(trifluoromethyl)phenyl)thio)-1H-indole], for which the MIC was 2 µg/mL (≈ 5.37 µM).

(Values after patent publication US20250382268A1, “METHODS AND COMPOSITIONS FOR SELECTIVELY INHIBITING PATHOGENIC MICROBES” (priority 2019, published 2025).)
